Article PMC4336329 (PLoS ONE, 2015)
The campaign covered roughly 310,000 compounds. About 2,200 (0.71%) showed an effect of 50% or more. The effect is printed as a negative number. Some of the results follow.

Biological target: human ether-à-go-go-related gene (hERG) potassium channel (human, UniProt Q12809)
Experiment: primary screen, population patch clamp on CHO cells stably expressing hERG

Chain of human ether-à-go-go-related gene (hERG) potassium channel (Q12809 whole entry, looked up): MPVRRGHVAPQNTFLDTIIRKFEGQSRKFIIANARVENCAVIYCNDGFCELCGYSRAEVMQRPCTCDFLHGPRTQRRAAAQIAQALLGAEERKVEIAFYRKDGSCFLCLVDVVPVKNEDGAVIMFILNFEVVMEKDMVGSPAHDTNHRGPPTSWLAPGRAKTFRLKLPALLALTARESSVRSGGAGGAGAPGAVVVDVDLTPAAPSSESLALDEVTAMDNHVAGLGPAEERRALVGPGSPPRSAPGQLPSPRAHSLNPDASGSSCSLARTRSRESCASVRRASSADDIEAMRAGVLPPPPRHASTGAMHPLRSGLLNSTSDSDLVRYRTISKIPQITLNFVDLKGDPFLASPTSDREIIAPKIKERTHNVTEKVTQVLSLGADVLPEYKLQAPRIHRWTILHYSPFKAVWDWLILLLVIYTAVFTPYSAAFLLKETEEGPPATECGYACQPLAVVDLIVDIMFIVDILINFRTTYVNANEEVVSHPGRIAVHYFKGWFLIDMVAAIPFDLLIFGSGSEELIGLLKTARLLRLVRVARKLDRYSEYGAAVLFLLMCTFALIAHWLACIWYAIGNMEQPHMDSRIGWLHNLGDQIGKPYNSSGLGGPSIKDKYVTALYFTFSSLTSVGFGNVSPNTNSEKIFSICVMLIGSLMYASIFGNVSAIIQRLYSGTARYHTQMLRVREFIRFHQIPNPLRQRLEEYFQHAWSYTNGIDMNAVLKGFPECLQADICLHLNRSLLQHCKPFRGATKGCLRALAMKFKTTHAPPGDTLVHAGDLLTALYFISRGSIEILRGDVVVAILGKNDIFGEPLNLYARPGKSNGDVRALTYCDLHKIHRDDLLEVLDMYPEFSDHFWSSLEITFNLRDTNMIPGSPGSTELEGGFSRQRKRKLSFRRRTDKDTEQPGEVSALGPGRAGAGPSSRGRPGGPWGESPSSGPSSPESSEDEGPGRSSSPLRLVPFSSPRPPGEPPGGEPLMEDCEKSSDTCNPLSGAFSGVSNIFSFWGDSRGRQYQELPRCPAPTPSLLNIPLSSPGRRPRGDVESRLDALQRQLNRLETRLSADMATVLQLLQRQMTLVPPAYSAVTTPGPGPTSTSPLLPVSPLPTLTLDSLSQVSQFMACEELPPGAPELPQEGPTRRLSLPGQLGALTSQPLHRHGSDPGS

Structure (SMILES)	hERG current change (%, negative = inhibition) at 1uM
CC1CCCN(c2sc(S(C)(=O)=O)nc2S(=O)(=O)c2ccc(Cl)cc2)C1 (stereo not shown)	17.7%
Cc1cc2ccccc2c(=O)n1CC(=O)N(C)c1ccc(F)cc1	9.42%
O=C(Nc1ccccc1)Nc1nc(-c2ccc(F)cc2)cs1	18.8%
CC(C)(C)OC(=O)N1CCC(CC2CC(c3cccc(Br)c3)=NO2)(C(=O)NCC2CCCCC2)CC1 (stereo not shown)	14.6%
COc1ccc(OC)c(NC(=O)CSc2n[nH]c(-c3cccnc3)n2)c1	-11.3%
O=C(Nc1cccnc1Cl)c1cc(-c2ccc(Br)cc2)on1	22.3%
Cc1cc(Br)ccc1NC(=O)CN(C)C(=O)C1CSC2(C)CCC(=O)N12 (stereo not shown)	14.7%
CN(C(=O)CC(NC(=O)c1ccccc1)(c1ccccc1)c1ccccc1)c1ccccc1	10.2%
Cc1ccc(Cl)cc1N1CCN(C(=O)c2cc3c(=O)[nH]c4ccccc4c3n2C)CC1	10.4%
Cc1nc2ccccn2c1-c1ccnn1S(=O)(=O)c1ccc(F)cc1	6.97%
Cc1ccc(S(=O)(=O)Nc2nonc2C)cc1	3.47%
CCCCCn1c(=NC(=O)c2cccnc2)c(C#N)cc2c(=O)n3cccc(C)c3nc21	-5.66%
CCCSC1=C(C#N)C(c2ccccc2OCC)CC(=O)N1 (stereo not shown)	2.13%
O=C(CCNS(=O)(=O)c1ccc2[nH]c(=O)oc2c1)NCc1ccccc1	3.2%
Cc1ccnc(SCC(=O)N2CCC(C(N)=O)CC2)n1	-6.25%
CCc1nn2c(NCCCO)cc(C)nc2c1-c1ccc(F)cc1	12%
CC(Oc1ccc(F)cc1)c1ccnc2nc(/N=C/N(C)C)nn12 (stereo not shown)	9.12%
Cc1ccc(S(=O)(=O)N2CCC(C(=O)N[C@@H](C)C(=O)NCc3ccccc3)CC2)cc1	6.93%
COc1ccc(NC(=O)C(NC(=O)Cc2cccs2)c2ccc(C)cc2)cc1 (stereo not shown)	3.62%
CN(C(=O)OCc1ccccc1)C(CC(N)=O)C(=O)O (stereo not shown)	8.56%
CCCCn1cnc2c(cnn2-c2ccc(F)cc2)c1=O	10.4%
COc1ccc(-c2sc3ccc(N4CCOCC4)cc3c2-c2ccc(O)cc2)cc1	13.7%

Structure (SMILES)	hERG current change (%, negative = inhibition) at 1uM
COc1cc(C(C(=O)NC2CCCC2)N(C(=O)c2snc(C(N)=O)c2N)c2ccccc2)cc(OC)c1OC (stereo not shown)	-0.496%
CC(C)c1cccc(C(C)C)c1NC(=O)CN1CCCC1	15.5%
COc1ccc(-c2oc3ccccc3c2C(=O)OCc2ccccc2OC)cc1	4.5%
COc1ccc(N2C(=O)CCC(C(=O)NCc3cccnc3)C2c2ccc(OC)c(OC)c2)cc1 (stereo not shown)	7.03%
CCC(CC)COC(=O)C(C#N)c1nc2ccccc2nc1N1CCOCC1 (stereo not shown)	4.5%
CN(CCn1ccnc1)Cc1cn(-c2ccccc2)nc1-c1ccc2c(c1)OCO2	-5.1%
COCCCn1c(=O)/c(=C\c2ccc(OC(F)F)c(OC)c2)s/c1=C(/C#N)C(N)=O	9.72%
COc1ccccc1N1C(=O)C2CC=CC(C)C2C1=O (stereo not shown)	16.5%
CCOC(=O)NC(NCCc1ccccc1)(C(F)(F)F)C(F)(F)F	18.9%
O=C(O)Cn1cnc2sc3c(c2c1=O)CCCC3	11%
O=C(NC1CCCCC1)c1cccc(S(=O)(=O)N2CCCCC2)c1	8.62%
Cc1cc(Cl)c2c(c1)[C@]1(C(=O)N2)[C@@H]2C(=O)N(Cc3ccccc3)C(=O)[C@@H]2[C@@H]2CCCN21	9.42%
COc1ccc(N2CCN(C3CC(=O)N(Cc4ccc(N5CCCC5=O)cc4)C3=O)CC2)cc1 (stereo not shown)	9.23%
O=C(NC1CC1)C1=C[C@H](c2ccc(Br)cc2)C[C@H](OCc2ccc(CO)cc2)O1	-4.05%
Cc1cc(C(=O)NN)c2cc(Br)ccc2n1	5.89%
COc1ccc(OCc2cc(/C=N\NC(=O)c3ccccc3)ccc2OC)cc1	-5.5%
O=C(Nc1ccccc1)Nc1cccc(Cl)c1	12.8%
Cc1occc1C(=O)Nc1cccc([N+](=O)[O-])c1	5.97%
Cc1cnnc2ccc3c(no[n+]3[O-])c12	13%
COc1ccc(C2C(C(=O)OCC(=O)Nc3ccc(C)cc3)CCC(=O)N2c2ccc(OC)cc2)cc1 (stereo not shown)	-9.66%
CN(C)C(=O)Nc1cnc2ccccc2c1	5.92%
Cc1cccc2cc(CN(Cc3cccnc3)C(=O)c3cccs3)c3nnnn3c12	-1.24%

Structure (SMILES)	hERG current change (%, negative = inhibition) at 1uM
O=C(NC1CCCC1)C1CCN(C(=O)c2ccccc2Cl)CC1	15.7%
COc1ccc(CNC2CCSc3ccccc32)cc1OC.O=C(O)C(=O)O (stereo not shown)	14.8%
CCOC(=O)CSc1ccc(S(=O)(=O)N2CCCC2)cc1[N+](=O)[O-]	5.74%
CC(C)CNC(=O)COC(=O)CNC(=O)c1cc(Cl)cc([N+](=O)[O-])c1	-6.29%
CC(NC(=O)CN1CCN(c2ccccc2F)CC1)c1ccccc1 (stereo not shown)	7.76%
COc1ccc(C2=NN(C(=O)c3ccco3)C(c3cc4ccccc4nc3Cl)C2)cc1 (stereo not shown)	12%
COc1ccc(N2CC(C(=O)OCC(=O)Nc3cc(C)on3)CC2=O)cc1 (stereo not shown)	9.53%
O=C(NC(=S)Nc1ccc(N2CCOCC2)cc1)c1ccccc1	9.13%
O=C(Nc1cccc(C(=O)NC2CCCC2)c1)c1ccccc1	5.75%
COc1ccc(/C=N/NC(=O)c2ccc(Br)cc2)cc1Cn1cc(Cl)cn1	4.52%
COC(=O)c1c(N2C(=O)CC(Sc3ncccc3C(=O)O)C2=O)sc(C)c1C (stereo not shown)	10.8%
O=C(N/N=C/C(Br)=C/c1ccccc1)c1n[nH]c2c1CCC2	4.82%
CCCCN(C)C1CCN(C(=S)Nc2ccc(OCC)cc2)CC1	-46.4%
CN(CC(=O)Nc1cccc(F)c1)C(=O)CCCc1nc2ccccc2c(=O)[nH]1	12.1%
Cc1cc2ncc(-c3ccc(Cl)cc3)cn2n1	13.1%
O=C(COC(=O)CNC(=O)C1CCCCC1)Nc1ccc2c(c1)OCCO2	1.25%
COc1ccc(N(C)C(=O)CC2(CC(=O)O)CCCCC2)cc1	-13.3%
CCOc1cc(/C=N/Nc2ccccc2Cl)ccc1OCC(=O)O	12.5%
CCOc1ccc(CCNC(=O)CCC(=O)N2CCSc3ccccc32)cc1OCC	5.11%
O=C(c1ccsc1)N1CCCC(Nc2ccc(F)c(F)c2)C1 (stereo not shown)	7.42%
O=C(COC(=O)c1nc(Cl)ccc1Cl)Nc1ccc2c(c1)OCO2	11.7%
O=C(Nc1nnc(C2CC2)s1)c1cc(Cl)sc1Cl	16.1%

Structure (SMILES)	hERG current change (%, negative = inhibition) at 1uM
CCn1c(Oc2ccccc2F)nc2c1c(=O)n(C)c(=O)n2C	14.8%
Br.COc1ccc2c(c1)nc(SCC(=O)c1ccc(Br)s1)n2C	4.81%
Cc1ccc(Cl)cc1N1CCN(C(=O)C2CCN(S(=O)(=O)c3cccnc3)CC2)CC1	-1.41%
COc1cc2cc(Br)cc(Br)c2nc1C	-6.18%
COc1ccc2c(c1)[nH]c1c(=O)n(N)cnc12	8.29%
CC(=O)CSc1nnc2c3ccccc3nc(C(C)(C)C)n12	14.4%
COc1cccc(CNc2ccc3[nH]c(=O)[nH]c3c2)c1OCc1ccccc1Cl	24%
COc1cc(NC(=O)COC(=O)Cn2cnc3c2c(=O)n(C)c(=O)n3C)cc(OC)c1	5.44%
N#Cc1ccc(NC(=O)N2CCC(c3nc4c(nnn4Cc4cccc(Cl)c4)c(=O)[nH]3)CC2)cc1	10.9%
Cc1cccc(C(=O)N2CCCC(CCC(=O)N3CCN(c4ccccn4)CC3)C2)c1 (stereo not shown)	-25.8%
Cc1sc2ncnc(NCC3COc4ccccc4O3)c2c1C (stereo not shown)	7.09%
Cc1ccc(CNC(=S)Nc2ccc(OC(F)F)cc2C)cc1	13.2%
CCOC(=O)c1ccc(N/C=C/C(=O)c2ccco2)cc1	13%
CC(C)CCN1CC(C(=O)NC(C)C)CC1=O (stereo not shown)	6.91%
C=CCn1c(SCCC)nc2sc3c(c2c1=O)CCc1ccccc1-3	17.7%
Cn1nc(-c2ccc(Cl)cc2)c2cc(C(=O)N3CCOCC3)sc21	3.03%
CCCn1c(CCNc2nc(-c3ccc(OC)cc3)cs2)nc2ccccc21	2.97%
CCn1c(CNS(=O)(=O)c2ccc(Br)cc2)nnc1SC	1.7%
N#Cc1ccc(Nc2nc(-c3ccc(O)cc3O)cs2)cc1C(F)(F)F	9.17%
COC(=O)COc1ccc(NC(=O)Cn2nc(-c3ccccc3)c3ccccc3c2=O)cc1	7.66%
O=C1NC2(CCCCC2)C(=O)N1CCS(=O)(=O)Oc1ccccc1	7.16%
COc1cc(OC)cc(/C(N)=N/O)c1	12.3%
